Results are given in words; binding and its absence hold for the method and conditions named. Binding seen in cells or lysates may run through a third protein. Some binding calls cover weakened binding; strength is not graded here.
Key:
[1] = target: GST-vSrc-SH2 fusion protein (UniProt P00524); assay: pull-down; as a2, but retinal lysates of dark-adapted wild-type mice; only the target purified
[2] = target: GST-vSrc-SH2 fusion protein (UniProt P00524); assay: pull-down; GST-vSrc-SH2 on glutathione-Sepharose 4B incubated overnight at 4°C with retinal lysates of light-adapted wild-type mice (also Grb14-/-, Rpe65-/-, and control versus Ins2Akita mice); washed three times in PBS; blots with anti-PY99 and anti-Grb14; only the target purified
[3] = target: GST-vSrc-SH2 fusion protein (UniProt P00524); assay: pull-down; solubilized rod outer segment proteins of light-adapted rats (LROS) incubated with GST-vSrc-SH2 for 2 h; blots with anti-PY99 and anti-Grb14; only the target purified
[4] = target: GST-vSrc-SH2 fusion protein (UniProt P00524); assay: pull-down; GST-vSrc-SH2 on glutathione-Sepharose 4B incubated with retinal lysates of light-adapted rats (the legend says mice), not treated with phosphatase; blots with anti-PY99 and anti-Grb14; only the target purified
[5] = target: GST-vSrc-SH2 fusion protein (UniProt P00524); assay: condition: only pull-downs treated with calf-intestinal phosphatase (CIP) for 30 min; pull-down; as a4, but the pull-downs were treated with calf-intestinal phosphatase (CIP) for 30 min and washed twice in wash buffer before the blot; only the target purified

The chains behind the UniProt entries cited, without tags or fusion partners.
UniProt Q9JLM9: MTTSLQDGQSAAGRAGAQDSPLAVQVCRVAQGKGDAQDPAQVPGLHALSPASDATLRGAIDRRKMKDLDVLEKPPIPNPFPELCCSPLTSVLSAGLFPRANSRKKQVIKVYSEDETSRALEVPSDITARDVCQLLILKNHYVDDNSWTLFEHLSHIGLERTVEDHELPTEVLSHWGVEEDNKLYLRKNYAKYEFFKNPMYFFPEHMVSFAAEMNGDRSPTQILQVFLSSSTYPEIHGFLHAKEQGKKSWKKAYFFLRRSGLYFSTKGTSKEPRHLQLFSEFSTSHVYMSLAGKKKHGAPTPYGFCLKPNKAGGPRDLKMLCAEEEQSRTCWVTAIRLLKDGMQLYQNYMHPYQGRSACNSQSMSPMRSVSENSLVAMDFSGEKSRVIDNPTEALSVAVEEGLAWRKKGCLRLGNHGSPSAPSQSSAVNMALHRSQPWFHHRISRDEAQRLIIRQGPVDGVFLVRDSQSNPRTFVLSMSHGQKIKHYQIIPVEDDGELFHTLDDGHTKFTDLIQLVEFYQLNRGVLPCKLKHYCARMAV

Substance: Grb14, endogenous in mouse retina (from UniProt Q9JLM9 1-538)
- binding [1]: no binding (condition: dark-adapted retinas)
- binding [2]: binds

Substance: Grb14, endogenous in rat retina and rod outer segments (from UniProt O88900 1-538)
- binding [3]: binds
- binding [4]: binds
- binding [5]: no binding

Reference: article PMC3878334
